Data reported in the antibiotic and cytotoxicity screens of Wong et al. (2023).
The list shows a part of the results.

Columns and labels:
HSkMC = human skeletal muscle cells; assay: cytotoxicity call (relative viability < 0.9); details: 10 µM
S. aureus RN4220 = assay: growth inhibition call (relative growth <= 0.2); details: 50 µM

| SMILES | cytotoxicity call (HSkMC) | growth inhibition call (S. aureus RN4220) |
| --- | --- | --- |
| COc1ccc(CNC(=O)C[C@@H]2CC[C@@H]3[C@@H](COc4ccc(NC(=O)C5CC5)cc4C(=O)N3C)O2)cc1 | inactive | inactive |
| OC[C@@H]1CCCO1 | inactive | inactive |
| O=C(C[C@H]1C[C@@H]2c3cc(NC(=O)c4ccc5c(c4)OCO5)ccc3O[C@@H]2[C@@H](CO)O1)NCCN1CCCCC1 | inactive | inactive |
| COCC#Cc1ccc([C@@H]2[C@@H](CO)N3C(=O)CN(C(=O)c4cccnc4)C[C@H]23)cc1 | inactive | inactive |
| COc1ccc(S(=O)(=O)N(C)C[C@H]2Oc3c(cccc3N(C)C)C(=O)N([C@@H](C)CO)C[C@H]2C)cc1 | inactive | inactive |
| COc1ccc(S(=O)(=O)Nc2ccc3c(c2)CC(=O)N([C@H](C)CO)C[C@@H](C)[C@H](CN(C)S(=O)(=O)c2cn(C)cn2)O3)cc1 | inactive | inactive |
| COc1cc(OC)c([C@@H]2c3c(n(C)c(=O)n(C)c3=O)N=C3COC(=O)C32)cc1OC (stereo not given in full) | inactive | inactive |
| CCOC(=O)c1c(CN2CCN(c3ccccc3)CC2)n(-c2ccccc2)c2cc(Br)c(O)cc12 | active | inactive |
| C[C@@H]1CCCCO[C@@H](CN(C)S(C)(=O)=O)[C@@H](C)CN([C@H](C)CO)C(=O)c2cc(NS(=O)(=O)c3cccs3)ccc2O1 | inactive | inactive |
| COc1ccc(S(=O)(=O)Nc2ccc3c(c2)C(=O)N([C@H](C)CO)C[C@H](C)[C@H](CN(C)Cc2ccc(C(=O)O)cc2)OCCCC[C@@H](C)O3)cc1 | inactive | inactive |
| CC(=O)OCC1=C(C(=O)O)N2C(=O)[C@@H](NC(=O)CSc3ccncc3)[C@H]2SC1 | inactive | active |
| COc1cc([C@@H]2c3cc4c(cc3[C@@H](O[C@@H]3O[C@@H]5CO[C@@H](C)O[C@H]5[C@H](O)[C@H]3O)[C@@H]3COC(=O)[C@@H]23)OCO4)cc(OC)c1O | inactive | inactive |
| C=CC[C@@H](CC(=O)N[C@@H](CO)Cc1ccccc1)C(=O)N1CCC[C@@H]1COC(=O)[C@@H](CC=C)NC(=O)OCC1c2ccccc2-c2ccccc21 | inactive | inactive |
| CO[C@H]1CN(C)C(=O)c2cc(NC(=O)C3CC3)ccc2OC[C@@H](C)N(C(=O)CN2CCOCC2)C[C@@H]1C | inactive | inactive |
| C[C@H](CO)N1C[C@H](C)[C@@H](CN(C)S(=O)(=O)c2ccc(Cl)cc2)Oc2ccc(NS(=O)(=O)c3cn(C)cn3)cc2C1=O | inactive | inactive |
| C[C@H]1CN([C@@H](C)CO)C(=O)Cc2cc(NS(=O)(=O)c3ccc(Cl)cc3)ccc2O[C@H]1CN(C)C(=O)Nc1cccc2ccccc12 | inactive | inactive |
| C[C@H]1CN([C@@H](C)CO)C(=O)c2cc(NC(=O)Nc3cccc4ccccc34)ccc2O[C@H]1CN(C)Cc1ccc(C(=O)Nc2ccccc2N)cc1 | inactive | inactive |
| C[C@H](CO)N1C[C@H](C)[C@H](CN(C)S(=O)(=O)c2ccc(C#N)cc2)Oc2ncc(C#Cc3cccc(F)c3)cc2C1=O | inactive | inactive |
| O=S1(=O)CC[C@H](N[C@H]2CCS(=O)(=O)C2)C1 | inactive | inactive |
| COc1ccc(S(=O)(=O)N(C)C[C@@H]2Oc3ccc(NC(=O)NC(C)C)cc3CC(=O)N([C@@H](C)CO)C[C@@H]2C)cc1 | inactive | inactive |

| SMILES | cytotoxicity call (HSkMC) | growth inhibition call (S. aureus RN4220) |
| --- | --- | --- |
| C[C@@H]1CN([C@H](C)CO)C(=O)c2cc(NC(=O)CCN3CCOCC3)ccc2O[C@@H]1CN(C)C(=O)Nc1ccc2c(c1)OCO2 | inactive | inactive |
| Cc1nc(CCO)cs1 | inactive | inactive |
| C[C@H]1CN([C@@H](C)CO)C(=O)Cc2cc(NC(=O)NC3CCCCC3)ccc2O[C@H]1CN(C)Cc1ccc(-c2ccccc2)cc1 | inactive | inactive |
| CO[C@H]1CN(C)C(=O)c2ccc(NC(=O)Nc3ccccc3F)cc2OC[C@H](C)N(Cc2ccccc2C(=O)O)C[C@@H]1C | inactive | inactive |
| C[C@@H]1CN([C@H](C)CO)C(=O)Cc2cc(NC(=O)Cn3cnnn3)ccc2O[C@H]1CN(C)CC1CC1 | inactive | inactive |
| COc1ccc(NC(=O)N2C[C@@H](O)COC[C@@H]3O[C@H](CC(=O)NCc4ccccc4OC)CC[C@H]32)cc1 | inactive | inactive |
| C[C@H](CO)N1C[C@H](C)[C@@H](CN(C)C(=O)C2CCCCC2)OCCCC[C@H](C)Oc2ccc(NC(=O)Nc3ccc(C(F)(F)F)cc3)cc2C1=O | inactive | inactive |
| CC(C)NC(=O)Cn1ccc([N+](=O)[O-])n1 | inactive | inactive |
| C[C@@H]1CN([C@H](C)CO)S(=O)(=O)c2ccc(C#Cc3cccc(F)c3)cc2O[C@H]1CN(C)S(=O)(=O)c1cn(C)cn1 | inactive | inactive |
| COc1ccccc1S(=O)(=O)N[C@H]1C=C[C@H](CC(=O)N2CCOCC2)O[C@@H]1CO | inactive | inactive |
| CN1CCN(C(=O)C[C@@H]2CC[C@H]3[C@@H](COc4ccc(NC(=O)C5CCOCC5)cc4C(=O)N3C)O2)CC1 | inactive | inactive |
| CCCNC(=O)C[C@@H]1CC[C@H]2[C@@H](COC[C@@H](O)CN2S(=O)(=O)c2ccc(Oc3ccccc3)cc2)O1 | inactive | inactive |
| CC(=O)OC1CCC2(C)C(CCC3(C)C2CCC24OC(=O)C5(CCC(C)C(C)C52)CCC34C)C1(C)C (stereo not given) | inactive | inactive |
| C[C@H]1CN([C@@H](C)CO)C(=O)c2cc(C3=CCCC3)cnc2O[C@@H]1CN(C)C(=O)Nc1ccc(C(F)(F)F)cc1 | inactive | inactive |
| COc1ccccc1C#Cc1ccc2c(c1)O[C@H](CN(C)Cc1cccnc1)[C@H](C)CN([C@H](C)CO)S2(=O)=O | inactive | inactive |
| C[C@H]1CN([C@@H](C)CO)C(=O)Cc2cc(NS(=O)(=O)c3cccs3)ccc2O[C@@H]1CN(C)Cc1ccc(Oc2ccccc2)cc1 | inactive | inactive |
| COC(=O)[C@@H](C)S(=O)(=O)NC(=O)c1cnc2ccccn2c1=O | inactive | inactive |
| C[C@@H]1CCCCO[C@@H](CN(C)C(=O)NC2CCCCC2)[C@@H](C)CN([C@H](C)CO)C(=O)c2cc(NC(=O)Nc3ccc(F)cc3)ccc2O1 | inactive | inactive |
| CC(C)CC#Cc1ccc2c(c1)O[C@@H](CN(C)C(=O)NC1CCCC1)[C@H](C)CN([C@@H](C)CO)S2(=O)=O | inactive | inactive |
| C[C@@H]1CCCCO[C@H](CN(C)Cc2ccc(Cl)c(Cl)c2)[C@@H](C)CN([C@@H](C)CO)C(=O)c2cc(NS(C)(=O)=O)ccc2O1 | inactive | inactive |

| SMILES | cytotoxicity call (HSkMC) | growth inhibition call (S. aureus RN4220) |
| --- | --- | --- |
| C[C@H](CO)N1C[C@H](C)[C@@H](CN(C)Cc2ccc(-c3ccccc3)cc2)Oc2ccc(NC(=O)Nc3cccc4ccccc34)cc2C1=O | inactive | inactive |
| O=C(c1ccco1)N1CCNCC1 | inactive | inactive |
| C[C@@H]1CN([C@H](C)CO)C(=O)c2cc(NS(=O)(=O)c3ccc(F)cc3)ccc2O[C@@H](C)CCCCO[C@H]1CN(C)Cc1ccc(Cl)c(Cl)c1 | inactive | inactive |
| CC(=O)N[C@@H](Cc1ccccc1)C(=O)O | inactive | inactive |
| C[C@H]1CCCCO[C@H](CN(C)S(=O)(=O)c2ccc(Cl)cc2)[C@@H](C)CN([C@@H](C)CO)C(=O)c2cc(NC(=O)Nc3ccc(F)cc3)ccc2O1 | inactive | inactive |
| C[C@H](CO)N1C[C@H](C)[C@H](CN(C)S(=O)(=O)c2cccs2)Oc2ncc(-c3ccc(F)cc3)cc2C1=O | inactive | inactive |
| C[C@@H]1CN([C@@H](C)CO)C(=O)c2cccc(NS(=O)(=O)c3ccccc3)c2O[C@@H]1CN(C)Cc1ccc(Cl)c(Cl)c1 | inactive | inactive |
| Cc1noc(C)c1NC(=O)Nc1ccc2c(c1)C(=O)N([C@H](C)CO)C[C@H](C)[C@@H](CN(C)CC1CCCCC1)OCCCC[C@H](C)O2 | inactive | inactive |
| CC(=O)Nc1ccc(CC(=O)O)cc1 | inactive | inactive |
| COc1ccc([Si](C)(C)[C@@H]2[C@@H](CC(=O)N3CCC[C@H]3CO)O[C@]3(C(=O)N(Cc4ccc(N5C(=O)c6cccc7cccc5c67)cc4)c4ccccc43)[C@H]2C)cc1 | inactive | inactive |
| COc1ccc(CN(C)C[C@H]2OCCCC[C@H](C)Oc3ccc(NC(=O)Nc4ccc(F)cc4)cc3C(=O)N([C@@H](C)CO)C[C@@H]2C)cc1 | inactive | inactive |
| C[C@@H]1CN([C@H](C)CO)C(=O)c2cc(NC(=O)CCCCCC(=O)Nc3ccccc3N)ccc2O[C@@H]1CN(C)S(C)(=O)=O | inactive | inactive |
| C[C@H]1CCCCO[C@H](CN(C)S(=O)(=O)c2ccccc2)[C@@H](C)CN([C@@H](C)CO)C(=O)c2cc(NC(=O)Nc3ccccc3)ccc2O1 | inactive | inactive |
| CCOC(=O)c1c(CN2CCN(Cc3ccccc3)CC2)n(-c2ccccc2)c2cc(Br)c(OC)cc12 | inactive | inactive |
| C[C@@H]1CN([C@@H](C)CO)C(=O)c2cc(NC(=O)Nc3cccc4ccccc34)ccc2O[C@H]1CN(C)C(=O)NC1CCCCC1 | inactive | inactive |
| CC(C)NC(=O)N(C)C[C@@H]1Oc2ncc(-c3ccc(C(=O)N(C)C)cc3)cc2C(=O)N([C@@H](C)CO)C[C@H]1C | inactive | inactive |
| COc1ccc(NC(=O)Nc2ccc3c(c2)[C@H]2C[C@H](CC(=O)NCc4ccccn4)O[C@@H](CO)[C@H]2O3)cc1 | inactive | inactive |
| CCOn1ccnc1 | inactive | inactive |
| C[C@@H]1CN([C@@H](C)CO)C(=O)c2cc(NS(=O)(=O)c3ccc(Cl)cc3)ccc2O[C@@H](C)CCCCO[C@H]1CN(C)C(=O)CCC(F)(F)F | inactive | inactive |
| COc1ccc(CN(C)C[C@@H]2Oc3ccc(NC(=O)C4CC4)cc3CC(=O)N([C@@H](C)CO)C[C@H]2C)cc1 | inactive | inactive |
